Measurements reported in the supplement of paper PMC10338343.
± gives the standard deviation. Over roughly 3,000 sequences, “pre-steady-state target cleavage rate” has its median near 0.0079; the highest 2% begin near 0.2. The list shows a part of the results, in another mix than the full data.

System: MILI (PIWIL2) piRISC loaded with piRNA #2 (26 nt)
Test: pre-steady-state target cleavage rate (min^-1); MIWI and MILI are mouse PIWI proteins and EfPiwi is from a freshwater sponge; tags in brackets are library labels; higher = faster piRNA-guided slicing of the target
Conditions: guide: piRNA #2 5'p-UUAGGUAACCCAGUAGAUCCAGAGGA; auxiliary factor: 500 nM mouse GTSF1
In short: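 The pre-steady-state cleavage rate was calculated from a burst-and-steady-state fit. Data came from Cleave-'n-Seq, in which […] transcribed, DNA-blocked target RNA library was mixed with 1 nM active affinity-purified piRISC carrying one synthetic guide, with or without 500 nM GTSF1 partner protein, in HEPES–potassium acetate buffer at 33 °C for 0–8 or 0–960 min. Uncleaved targets were sequenced and normalised to depth and to weakly complementary targets, three trials were pooled, and k3 was capped at 0.0001 min^-1.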
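Further: 1 nM active piRISC with 0.1 nM target library at 33 °C single turnover.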

Row | Sequence | pre-steady-state target cleavage rate
1 | CUUAACCUUCUGGAUCUACUGGGUUACCUAA | 0.106 ± 0.021
2 | CUUAACCUCUGGAUGAUCUGGGUUACCUAA | 0.065 ± 0.02
3 | CUUAACCUCUGGAUCUACUGCGUUACCUUA | 0.00986 ± 0.005
4 | CUUAACCUCUCGAUCUACUGGGUUACCUUA | 0.139 ± 0.026
5 | CUUAUGCUCUGGAUCUACUGGGUUACGUAA | 0.0534 ± 0.011
6 | CUUAACCUCUGGAUCAACUGGGUAACCUAA | 0.0313 ± 0.011
7 | CUUAAGGACUGGAUCUAGUGGGUUACCUUA | 0.0338 ± 0.0096
8 | CUUAUCCUCUCGAACUACUGGGUUACCUAA | 0.105 ± 0.016
9 | CUUAACCUCUGGAUCUACUGGGUUACCUCA | 0.103 ± 0.025
10 | CUUAAGGAGUGGAUCUACUGGGUUGACCUAA | 0.00879 ± 0.0042
11 | CUUAACCUCCGGAUCUACUGGGUUACCUAA | 0.0951 ± 0.027
12 | CUUAACCUCUGGAUCUACUGGGAUACCAAA | 0.0469 ± 0.018
13 | CUUAAGGACUGGAUCUAGUGGGUUACCUAA | 0.044 ± 0.011
14 | CUUAACCUCUGGAUGUAGUGGGUUACCUAA | 0.0952 ± 0.015
15 | CUUAACCUCAGGAUCUACUGGGUUACGUAA | 0.0145 ± 0.0078
16 | CUUAACCUCUGGAUGUACUGGGUUUCCUAA | 0.147 ± 0.059
17 | CUUAAGCUCUGGAUCAACUGGGUUACCUAA | 0.0329 ± 0.01
18 | CUUAAGGUCUGGUUCUAGUGGGUUACCUAA | 0.0785 ± 0.017
19 | CUUAACCUCUGCAUCUACUGGGUUUCCUAA | 0.14 ± 0.059
20 | CUUAAGGUCUGGAUCUUCUGGGUUACCUUA | 0.0322 ± 0.0091
21 | CUUAAGGAGACCAUGUACUGGGUAACCUAA | < 0.0001
22 | CUUAUCGUCUGGAUCAACUGGGUUACCUAA | 0.0335 ± 0.009
23 | CUUAAGGUCUGGAUCUUCAGGGUUACCUAA | 0.0706 ± 0.011

Row | Sequence | pre-steady-state target cleavage rate
24 | CUUAAGCUUGGAUCUACUGGGUUACCUAA | 0.084 ± 0.027
25 | CUUAAGCUCUGCAUCUUCUGGGUUACCUAA | 0.0479 ± 0.0093
26 | CUUAAGGAGUGGAUCUACUGGGAUACCUAA | 0.0104 ± 0.0067
27 | CUUAAGGACUGGAUCUUCAGGGUUACCUAA | 0.036 ± 0.013
28 | CUUAUGCUCUGGAUCUACUGGGAUACCUAA | 0.0451 ± 0.011
29 | CUUAAGGUCUGGAUCUACUGGGUUACCAUA | 0.0616 ± 0.012
30 | CUUAACCUCUAGGAUCUACUGGGUUACCUAA | 0.0385 ± 0.012
31 | CUUAUCCUCUGGAUCUACUGGGUUUACCUAA | 0.107 ± 0.023
32 | CUUAAGGAGACGAUCUACAGGGUUACCUAA | 0.00832 ± 0.0041
33 | CUUAAGGAGUGGUUCUACAGGGUUACCUAA | 0.0435 ± 0.0097
34 | CUUAAGGUGCUGGAUCUACUGGGUUACCUAA | 0.0675 ± 0.019
35 | CUUAAGGUCUGGAUCUUCUGGGUUAGCUAA | 0.00557 ± 0.0047
36 | CUUAAGGUCUGGAUCUACUGGGUUCCUAA | 0.00608 ± 0.0041
37 | CUUAAGCUAUGGAUCUACUGGGUUACCUAA | 0.0866 ± 0.013
38 | CUUAUCCUCUGGAUCUACUGGGUUACCAUA | 0.139 ± 0.026
39 | CUUAUCCUCUGGAUCUACUGGGAUUACCUAA | 0.0662 ± 0.02
40 | CUUAAGCUCUGGAUCUACUGGGUUACAUAA | 0.0717 ± 0.015
41 | CUUAAGCUCUGGAUGUACUGGGUUAGCUAA | 0.0299 ± 0.012
42 | CUUAAGGUCUGGUUCUACUGGGUUACCUUA | 0.0401 ± 0.015
43 | CUUAAGGUCUGGAUGAACUGGGUUACCUAA | 0.0133 ± 0.012
44 | CUUAAGGAGUGGAUCUACUGGGUGUACCUAA | 0.0153 ± 0.007
45 | CUUAUCCUCUGGAUCUACUGGGAUUCCUAA | 0.125 ± 0.055
46 | CUUAAGGAGUGGAUCUACUGGGUUACCUA | 0.0639 ± 0.018

Row | Sequence | pre-steady-state target cleavage rate
47 | CUUAUCCUCUGGAACUACUGGGUAACCUAA | 0.0599 ± 0.022
48 | CUUAUCCUGUGGAACUACUGGGUUACCUAA | 0.0386 ± 0.017
49 | CUUAUCCUCUGCUUCUACUGGGUUACCUAA | 0.157 ± 0.026
50 | CUUAACCUGAGGAUCUACUGGGUUACCUAA | 0.0229 ± 0.01
51 | CUUAAGGUCUGCAUCAACUGGGUUACCUAA | 0.0218 ± 0.011
52 | CUUAACCACUCGAUCUACUGGGUUACCUAA | 0.119 ± 0.022
53 | CUUAAGGAGUGGAUCUACUGGGUAUACCUAA | 0.0254 ± 0.0083
54 | CUUAAGGUCUGCUUCUACUGGGUUACCUAA | 0.033 ± 0.011
55 | CUUAACCUCUGGAUCUACUGGGUUACCAUAA | 0.13 ± 0.03
56 | CUUAAGGUCAGGAUCUACAGGGUUACCUAA | 0.0472 ± 0.013
57 | CUUAAGCUCAGGAUCUACUGGGUUAGCUAA | 0.00585 ± 0.0052
58 | CUUAACCUCUGGAUCUACUGGGUUAUCCUAA | 0.117 ± 0.026
59 | CUUAAGGAGAGGAUCUACUGGGUUACCUAC [g2:g20:cont:t1C] | 0.0103 ± 0.0041
60 | CUUAACCUGUGGAUCUACUGCGUUACCUAA | 0.0105 ± 0.0061
61 | CUUAAGGUCAGGAUCAACUGGGUUACCUAA | 0.00947 ± 0.0062
62 | CUUAAGGUCUCGAUCUACAGGGUUACCUAA | 0.073 ± 0.013
63 | CUUAAGGUCUAGAUCUACUGGGUUACCUAA | 0.0905 ± 0.017
64 | CUUAAGCUCUCGAUCAACUGGGUUACCUAA | 0.088 ± 0.019
65 | CUUAAGCUCUGGAAGAACUGGGUUACCUAA | 0.0134 ± 0.0085
66 | CUUAAGGAGUGGAAGUACUGGGUUACCUAA | 0.00681 ± 0.0045
67 | CUUAUCCUCUGGAUCUACUGGGUAUACCUAA | 0.0987 ± 0.018
68 | CUUAAGGACUGGAUCUAGUGGGAUACCUAA | 0.00711 ± 0.0055
69 | CUUAUCCUCUGCAUCUAGUGGGUUACCUAA | 0.0659 ± 0.016

Row | Sequence | pre-steady-state target cleavage rate
70 | CUUAAGGUCUGGAUCAACUGGGUUACCUUA | 0.029 ± 0.008
71 | CUUAUCCGUCUGGAUCUACUGGGUUACCUAA | 0.0798 ± 0.016
72 | CUUAAGGACUGGAUCAACAGGGUUACCUAA | 0.027 ± 0.0096
73 | CUUAAGGAGAGCGAUCUACUGGGUUACCUAA | 0.00459 ± 0.0037
74 | CUUAAGGAUUGGAUCUACUGGGUUACCUAA | 0.0475 ± 0.015
75 | CUUAAGGAGUGGAUCUACAGGGUUACCUUA | 0.043 ± 0.0094
76 | CUUAAGGACUGGAUCUCCUGGGUUACCUAA | 0.0127 ± 0.0073
77 | CUUAACCUCUGGAUCGUACUGGGUUACCUAA | 0.00644 ± 0.0035
78 | CUUAAGGAGACCUAGUACGGGUUACCUAA | < 0.0001
79 | CUUAAGGUCUGGAUCUACUGGGUUACCUGAA | 0.0831 ± 0.035
80 | CUUAAGGAGACGAUCUACAGGGUAACCUAA | 0.00518 ± 0.004
81 | CUUAACCUCUGGAUGUACUGGGUUACCUUA | 0.105 ± 0.027
82 | CUUAACCUCUGGAUCUACUGGUUACCUAA | 0.00574 ± 0.0037
83 | CUUAACCACUGGAUCUAGUGGGUUACCUAA | 0.0649 ± 0.012
84 | CUUAAGCACUGGAUGUACUGGGUUACCUAA | 0.11 ± 0.022
85 | CUUAACCUCUGGAGCUACUGGGUUACCUAA | 0.226 ± 0.049
86 | CUUAUCCUCUGGAUCUACUGGGUAACGUAA | 0.0633 ± 0.019
87 | CUUAUUCCUCUGGAUCUACUGGGUUACCUAA | 0.106 ± 0.025
88 | CUUAAGCUCUGGAUCAACUGGGUUACCAAA | 0.0443 ± 0.0094
89 | CUUAACCUCUGGAUGCUACUGGGUUACCUAA | 0.124 ± 0.029
90 | CUUAAGCUCUGGAUCUUCUGGGUAACCUAA | 0.0173 ± 0.0059
91 | CUUAAGCUCUGGAUCUACUGGGUUAACCUAA | 0.0621 ± 0.013
92 | CUUAAGGAGACCUAGAUGAGUGGUUACCUAA | < 0.0001
